The whole screen tested about 73,000 compounds, of which about 1,800 (2.5%) were called active. This list was built around the results that the source calls inconclusive (neither active nor inactive); the mix of calls is not that of the screen. Calls come from the whole dose curve; as a rule, active = well fitted activation curve with a large enough effect; inconclusive = small, poorly fitted or top-dose-only effect; inactive = no such curve, though single readings can be large or run the other way. No potency is given beside an inconclusive call; the fits are too rough.
Test: qHTS Assay for Agonists of the Thyroid Stimulating Hormone Receptor: Activators of Intracellular cAMP Concentrations in Parental HEK 293; note: nearly all actives have a fitted effect of over 55% in size; for activation: % of control where 0% means no effect
Details: parental HEK293 CNG cAMP sensor, membrane potential fluorescence; activation: at 57.1 µM (top of the series) unless noted
Outline: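 Parental HEK 293 cells stably expressing a cAMP-gated CNG channel were loaded with membrane potential dye containing 100 uM RO 20-1724 for 60 min. Compound added for 30 min; depolarization read as fluorescence intensity at 590 nm.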
Potency is the fitted concentration of half-maximal effect; tags give direction and shape of the fitted curve.

| Compound | Potency | activation |
| --- | --- | --- |
| CCCOc1cccc(C(=O)Nc2cccnc2)c1 | inconclusive [activator, single point] |  |
| CS(=O)(=O)N1CCC2(CCCN(c3ccncc3)C2)CC1 |  | inactive: 11.5% |
| O=C(Nc1nc(-c2nc3ccccc3s2)cs1)c1ccc(S(=O)(=O)N2CCOCC2)cc1 | inconclusive [activator, partial curve] |  |
| CCOC(=O)c1c(C)[nH]c(C)c1C(=O)Cn1nnc(-c2ccccc2C)n1 | inconclusive [activator, single point] |  |
| CC(=O)c1ccc(Nc2nc(C)nc3c2oc2ccccc23)cc1 |  | inactive: 22.2% |
| COc1cccc(OCCOCCNCCO)c1 | inconclusive [activator, full curve] |  |
| CCc1cccc(N(C)C(N)=Nc2cccc3ccccc23)c1 | inconclusive [activator, single point] |  |
| CCOc1ccccc1C(=O)N1CCN(c2cccc(Cl)c2)CC1 | inconclusive [activator, partial curve] |  |
| Cc1nc(NCc2ccccc2)[nH]c(=O)c1CCC(C)C | inconclusive [activator, single point] |  |
| CS(=O)(=O)Nc1cccc(-c2cncnc2Nc2ccc(F)cc2)c1 | inconclusive [activator, single point] |  |
| O=C1CC(c2ccccc2)n2nc(N3C(=O)CCC3=O)nc2N1 (stereo not drawn) | inconclusive [activator, single point] |  |
| COC(=O)[C@@]1(Cc2ccc(OC)cc2)[C@H]2c3cc(C(=O)N(C)C)n(Cc4cc(C)n(C)n4)c3C[C@H]2CN1C(=O)c1ccccc1 | inconclusive [activator, partial curve] |  |
| O=C1[C@H]2[C@H]3[C@H](O)[C@H](O)C/C(=N/OCc4ccccc4)[C@@H]3CC[C@@H]2C(=O)N1c1cccc(Oc2ccccc2)c1 | inconclusive [activator, single point] |  |
| COc1ccc(OCC(=O)Nc2cccc3cccnc23)cc1 | inconclusive [activator, single point] |  |
| Cc1noc(C)c1C(=O)N1CCC[C@@]2(CCN(c3cccc(-c4ccccc4)c3)C2)C1 | inconclusive [activator, partial curve] |  |
| O=C(O)/C=C\C(=O)Nc1ccccn1 |  | inactive: 16.8% [at 11.4 µM] |
| C=CCOC(=O)C(C(C)=O)C(NC(=O)OC)c1cccc(F)c1 (stereo not drawn) |  | inactive: 11.8% [at 11.4 µM] |
| Cc1sc2nc(SCC(=O)NCc3ccco3)n(CCc3ccccc3)c(=O)c2c1C | inconclusive [activator, partial curve, poor fit] |  |
| N[C@@H](Cc1nn[nH]n1)C(=O)O |  | inactive: 1.07% [at 11.4 µM] |
| COc1ccc(NC(=O)CN(c2cccc(F)c2)S(C)(=O)=O)cc1OC | inconclusive [activator, single point] |  |
| CN(Cc1nc(-c2ccncc2)no1)S(=O)(=O)c1ccccc1 |  | inactive: 3.38% |
| O=C(Nc1cccc(C(=O)Nc2ccc(S(=O)(=O)O)c3cc(S(=O)(=O)O)cc(S(=O)(=O)O)c23)c1)Nc1cccc(C(=O)Nc2ccc(S(=O)(=O)O)c3cc(S(=O)(=O)O)cc(S(=O)(=O)O)c23)c1 | inconclusive [activator, single point] |  |

| Compound | Potency | activation |
| --- | --- | --- |
| Cc1ccc(-c2nnc3ccc(SC(C)C(=O)O)nn23)cc1 (stereo not drawn) | inconclusive [activator, single point] |  |
| O=C(CSc1nnc(-c2ccc(Cl)s2)o1)N1CCCc2ccccc21 | active: 3.98 µM |  |
| CCOC(=O)C1CCN(c2c(NC3CCCCCCC3)c(=O)c2=O)CC1 | inconclusive [activator, partial curve] |  |
| N=C1C(c2ccccc2)=C(O)C2CCc3ccccc3N12 (stereo not drawn) |  | inactive: -9.12% |
| CC1=CC(C)(C)Nc2ccc(OC(=O)CN3C(=O)CCC3=O)cc21 |  | inactive: -19.9% |
| COc1ccc(N(CC(=O)Nc2cc(OC)ccc2OC)S(=O)(=O)c2c(C)nn(C)c2C)cc1 |  | inactive: -0.987% |
| O=C(/C=C\c1ccc(O)cc1)c1ccc(O)cc1O |  | inactive: -17.6% |
| CCCCCCCC1=CC2=CC(=O)C(C)(O)C(=O)C2=CN1CCCC (stereo not drawn) |  | inactive: -4.64% [at 11.4 µM] |
| c1ccc(-c2onc3cc4c(cc23)OCCO4)cc1 | inconclusive [activator, partial curve] |  |
| O=C(c1cc2sccc2n1Cc1ccccc1)N1CCc2ccccc21 | inconclusive [activator, partial curve] |  |
| O=C(c1cnccn1)N1CCC2(CCCN(C(c3ccccc3)c3ccccc3)C2)CC1 | inconclusive [activator, partial curve] |  |
| CN1CCN(c2ncc3nc(CCc4ccccc4)c(=O)n(CCC#N)c3n2)CC1 | inconclusive [activator, partial curve] |  |
| CCOC(=O)C1CCCN(c2c(NCC3CCCN3CC)c(=O)c2=O)C1 (stereo not drawn) | inconclusive [activator, single point] |  |
| Nc1cccc(-n2nncc2-c2ccccc2)c1 | inconclusive [activator, partial curve] |  |
| CCNc1ncc2nc(-c3ccc(OC)cc3)c(=O)n(CCc3ccccc3)c2n1 | inconclusive [activator, single point] |  |
| CCNc1ncc2nc(-c3ccccc3)c(=O)n(Cc3cccs3)c2n1 | inconclusive [activator, single point] |  |
| COc1ccc(NC(=O)C2CCCN2S(=O)(=O)c2ccc3c(c2)CCC(=O)N3)c(OC)c1 (stereo not drawn) |  | inactive: 2.62% |
| Cc1ccc(Cn2nnc3c(=O)n(CC(=O)NCc4ccc5c(c4)OCO5)cnc32)cc1 | inconclusive [activator, single point] |  |
| CCc1nc(N2CCC(C)CC2)c2oc3ccccc3c2n1 | active: 15.8 µM |  |
| CC(=O)N1c2ccccc2N(Cc2ccc(C)cc2C)C(=O)C1(C)C | inconclusive [activator, single point] |  |
| CCN(CC)c1ccc(NC(=O)C2CC3CCC2C3)cc1 (stereo not drawn) |  | inactive: 13% |
